Source: publication PMC12820563, “FoxP3 forms a head-to-head dimer in vivo and stabilizes its multimerization on adjacent microsatellites”
The other results are listed elsewhere or left out.

Biological target: T1, MBP-FoxP1dN (Mus musculus, UniProt P58462 326-579)
T1 sequence: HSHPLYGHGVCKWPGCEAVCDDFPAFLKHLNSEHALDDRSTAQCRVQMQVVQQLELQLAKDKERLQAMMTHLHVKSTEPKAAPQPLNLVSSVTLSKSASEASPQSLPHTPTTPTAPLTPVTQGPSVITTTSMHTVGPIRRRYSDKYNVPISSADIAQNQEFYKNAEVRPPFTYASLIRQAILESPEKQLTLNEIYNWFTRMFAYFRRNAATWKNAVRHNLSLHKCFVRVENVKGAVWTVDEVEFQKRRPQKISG
Experiment: PD-seq (MBP pull-down with sequencing); 20 mM Tris-HCl pH 7.5, 100 mM NaCl, 1.5 mM MgCl2, 0.4 uM protein, 0.1 uM dsDNA library, 30 min, room temperature, amylose pull-down; high values mean tight binding
Details: protein: recombinant; tags: His6-MBP; chain copies: 2; dsDNA, one strand shown
Summary of the method: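 A degenerate double-stranded DNA library, filled in with Klenow, was added at 0.1 µM to 0.4 µM His6-MBP-tagged mouse FoxP3 or FoxP1 fragment lacking the N-terminus, expressed in E. coli. Incubation lasted 30 min at room temperature in Tris pH 7.5 buffer with NaCl and MgCl2, after which complexes were collected on amylose resin, washed three times, digested with proteinase K to free the DNA, barcoded by PCR and sequenced by Illumina. Binding is the pooled-replicate reads-per-million enrichment of pull-down over input.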

Sequence | binding signal
GATGATTGTTCTCCCAGCTGATGAATTGAGGTAATCGAGTAAACAAATTTTCCTAATCTTTCTGTTCAAGCGCCATCTAC | 1.29 RPM ratio (pull-down/input)
GATGATTGTTCTCCCAGCTGATGAATTCACCTAGTCGAGTAAACAAATTTTCCTAATCTTTCTGTTCAAGCGCCATCTAC | 0.865 RPM ratio (pull-down/input)
GATGATTGTTCTCCCAGCTGATGAATTAACGCAATCGAGTAAACAAATTTTCCTAATCTTTCTGTTCAAGCGCCATCTAC | 1.33 RPM ratio (pull-down/input)
GATGATTGTTCTCCCAGCTGATGAATTGTAGATCTCGAGTAAACAAATTTTCCTAATCTTTCTGTTCAAGCGCCATCTAC | 0.889 RPM ratio (pull-down/input)
GATGATTGTTCTCCCAGCTGATGAATTAAGGGTTTCGAGTAAACAAATTTTCCTAATCTTTCTGTTCAAGCGCCATCTAC | 0.875 RPM ratio (pull-down/input)
GATGATTGTTCTCCCAGCTGATGAATTGTCACCGTCGAGTAAACAAATTTTCCTAATCTTTCTGTTCAAGCGCCATCTAC | 1.01 RPM ratio (pull-down/input)
GATGATTGTTCTCCCAGCTGATGAATTAATGTCTTCGAGTAAACAAATTTTCCTAATCTTTCTGTTCAAGCGCCATCTAC | 0.97 RPM ratio (pull-down/input)
GATGATTGTTCTCCCAGCTGATGAATTTATGGACTCGAGTAAACAAATTTTCCTAATCTTTCTGTTCAAGCGCCATCTAC | 0.992 RPM ratio (pull-down/input)
GATGATTGTTCTCCCAGCTGATGAATTATGGACCTCGAGTAAACAAATTTTCCTAATCTTTCTGTTCAAGCGCCATCTAC | 0.852 RPM ratio (pull-down/input)
GATGATTGTTCTCCCAGCTGATGAATTATCTAAATCGAGTAAACAAATTTTCCTAATCTTTCTGTTCAAGCGCCATCTAC | 1.18 RPM ratio (pull-down/input)
GATGATTGTTCTCCCAGCTGATGAATTGCGAGTTTCGAGTAAACAAATTTTCCTAATCTTTCTGTTCAAGCGCCATCTAC | 1.08 RPM ratio (pull-down/input)
GATGATTGTTCTCCCAGCTGATGAATTATGGGTGTCGAGTAAACAAATTTTCCTAATCTTTCTGTTCAAGCGCCATCTAC | 0.913 RPM ratio (pull-down/input)
GATGATTGTTCTCCCAGCTGATGAATTTAGTAGCTCGAGTAAACAAATTTTCCTAATCTTTCTGTTCAAGCGCCATCTAC | 0.946 RPM ratio (pull-down/input)
GATGATTGTTCTCCCAGCTGATGAATTGATTTAATCGAGTAAACAAATTTTCCTAATCTTTCTGTTCAAGCGCCATCTAC | 1.12 RPM ratio (pull-down/input)
GATGATTGTTCTCCCAGCTGATGAATTCATTGTTTCGAGTAAACAAATTTTCCTAATCTTTCTGTTCAAGCGCCATCTAC | 1.17 RPM ratio (pull-down/input)
GATGATTGTTCTCCCAGCTGATGAATTACCGCATTCGAGTAAACAAATTTTCCTAATCTTTCTGTTCAAGCGCCATCTAC | 1.19 RPM ratio (pull-down/input)

Sequence | binding signal
GATGATTGTTCTCCCAGCTGATGAATTTCGGTTGTCGAGTAAACAAATTTTCCTAATCTTTCTGTTCAAGCGCCATCTAC | 1.03 RPM ratio (pull-down/input)
GATGATTGTTCTCCCAGCTGATGAATTTGCGGGATCGAGTAAACAAATTTTCCTAATCTTTCTGTTCAAGCGCCATCTAC | 0.948 RPM ratio (pull-down/input)
GATGATTGTTCTCCCAGCTGATGAATTACCTGCGTCGAGTAAACAAATTTTCCTAATCTTTCTGTTCAAGCGCCATCTAC | 1.09 RPM ratio (pull-down/input)
GATGATTGTTCTCCCAGCTGATGAATTGCTATTATCGAGTAAACAAATTTTCCTAATCTTTCTGTTCAAGCGCCATCTAC | 1.8 RPM ratio (pull-down/input)
GATGATTGTTCTCCCAGCTGATGAATTCAAAACATCGAGTAAACAAATTTTCCTAATCTTTCTGTTCAAGCGCCATCTAC | 1.99 RPM ratio (pull-down/input)
GATGATTGTTCTCCCAGCTGATGAATTGACGCTTTCGAGTAAACAAATTTTCCTAATCTTTCTGTTCAAGCGCCATCTAC | 1.33 RPM ratio (pull-down/input)
GATGATTGTTCTCCCAGCTGATGAATTCCGTCCCTCGAGTAAACAAATTTTCCTAATCTTTCTGTTCAAGCGCCATCTAC | 0.782 RPM ratio (pull-down/input)
GATGATTGTTCTCCCAGCTGATGAATTGGTACTATCGAGTAAACAAATTTTCCTAATCTTTCTGTTCAAGCGCCATCTAC | 1.06 RPM ratio (pull-down/input)
GATGATTGTTCTCCCAGCTGATGAATTGCGGTACTCGAGTAAACAAATTTTCCTAATCTTTCTGTTCAAGCGCCATCTAC | 1.07 RPM ratio (pull-down/input)
GATGATTGTTCTCCCAGCTGATGAATTACGATACTCGAGTAAACAAATTTTCCTAATCTTTCTGTTCAAGCGCCATCTAC | 1.13 RPM ratio (pull-down/input)
GATGATTGTTCTCCCAGCTGATGAATTATAAAATTCGAGTAAACAAATTTTCCTAATCTTTCTGTTCAAGCGCCATCTAC | 1.05 RPM ratio (pull-down/input)
GATGATTGTTCTCCCAGCTGATGAATTTGACCTCTCGAGTAAACAAATTTTCCTAATCTTTCTGTTCAAGCGCCATCTAC | 0.806 RPM ratio (pull-down/input)
GATGATTGTTCTCCCAGCTGATGAATTGTCGTTGTCGAGTAAACAAATTTTCCTAATCTTTCTGTTCAAGCGCCATCTAC | 1.38 RPM ratio (pull-down/input)
GATGATTGTTCTCCCAGCTGATGAATTCCACAGGTCGAGTAAACAAATTTTCCTAATCTTTCTGTTCAAGCGCCATCTAC | 0.798 RPM ratio (pull-down/input)
GATGATTGTTCTCCCAGCTGATGAATTCCCTTCATCGAGTAAACAAATTTTCCTAATCTTTCTGTTCAAGCGCCATCTAC | 0.855 RPM ratio (pull-down/input)
